Some of the results follow.
How the values were obtained:
Test in all cases: glycan array binding signal (z-score within array); higher = stronger binding
Details in all cases: glycan notation: IUPAC condensed, linker removed
[1] = target: Fuc(a1-2)Gal
Outline: (§1)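 The binding signal is a Z-score computed within each array and averaged over linkers. Arrays of the same protein sequence at different concentrations or buffers were also averaged together. Data originate from 3228 arrays in the Consortium for Functional Glycomics database, kept only where the protein sequence was available.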

[2] = target: Fuc(a1-2)Gal(b1-3)GalNAc
Outline: as §1

[3] = target: Fuc(a1-2)Gal(b1-3)GalNAc(b1-3)Gal
Outline: as §1

[4] = target: Fuc(a1-2)Gal(b1-3)GalNAc(b1-3)Gal(a1-4)Gal(b1-4)Glc
Outline: as §1

[5] = target: Fuc(a1-2)Gal(b1-3)GalNAc(b1-4)[Neu5Ac(a2-3)]Gal(b1-4)Glc
Outline: as §1

[6] = target: Fuc(a1-2)Gal(b1-3)GlcNAc
Outline: as §1

[7] = target: Fuc(a1-2)Gal(b1-3)GlcNAc(b1-3)Gal(b1-4)Glc
Outline: as §1

[8] = target: Fuc(a1-2)Gal(b1-3)[Fuc(a1-4)]GlcNAc
Outline: as §1

[9] = target: Fuc(a1-2)Gal(b1-4)Glc
Outline: as §1

[10] = target: Fuc(a1-2)Gal(b1-4)GlcNAc
Outline: as §1

[11] = target: Fuc(a1-2)Gal(b1-4)GlcNAc(b1-3)Gal(b1-4)GlcNAc
Outline: as §1

[12] = target: Fuc(a1-2)Gal(b1-4)GlcNAc(b1-3)Gal(b1-4)GlcNAc(b1-3)Gal(b1-4)GlcNAc
Outline: as §1

[13] = target: Fuc(a1-2)Gal(b1-4)[Fuc(a1-3)]GlcNAc
Outline: as §1

[14] = target: Fuc(a1-2)Gal(b1-4)[Fuc(a1-3)]GlcNAc(b1-3)Gal(b1-4)[Fuc(a1-3)]GlcNAc
Outline: as §1

[15] = target: Fuc(a1-2)Gal(b1-4)[Fuc(a1-3)]GlcNAc(b1-3)Gal(b1-4)[Fuc(a1-3)]GlcNAc(b1-3)Gal(b1-4)[Fuc(a1-3)]GlcNAc
Outline: as §1

[16] = target: Fuc(a1-2)GlcNAc
Outline: as §1

[17] = target: Fuc(a1-2)[Gal(a1-3)]Gal
Outline: as §1

[18] = target: Fuc(a1-2)[Gal(a1-3)]Gal(b1-3)GlcNAc
Outline: as §1

[19] = target: Fuc(a1-2)[Gal(a1-3)]Gal(b1-4)Glc
Outline: as §1

[20] = target: Fuc(a1-2)[Gal(a1-3)]Gal(b1-4)GlcNAc
Outline: as §1

[21] = target: Fuc(a1-2)[Gal(a1-3)]Gal(b1-4)[Fuc(a1-3)]GlcNAc
Outline: as §1

[22] = target: Fuc(a1-2)[Gal(a1-4)]Gal(b1-4)GlcNAc
Outline: as §1

[23] = target: Fuc(a1-2)[GalNAc(a1-3)]Gal
Outline: as §1

[24] = target: Fuc(a1-2)[GalNAc(a1-3)]Gal(b1-3)GlcNAc
Outline: as §1

[25] = target: Fuc(a1-2)[GalNAc(a1-3)]Gal(b1-4)Glc
Outline: as §1

[26] = target: Fuc(a1-2)[GalNAc(a1-3)]Gal(b1-4)GlcNAc
Outline: as §1

[27] = target: Fuc(a1-2)[GalNAc(a1-3)]Gal(b1-4)[Fuc(a1-3)]GlcNAc
Outline: as §1

[28] = target: Fuc(a1-2)[GalNAc(a1-4)]Gal(b1-4)GlcNAc
Outline: as §1

[29] = target: Fuc(a1-2)[GalNAc(b1-3)]Gal
Outline: as §1

[30] = target: Fuc(a1-3)GlcNAc
Outline: as §1

[31] = target: Fuc(a1-3)[Gal(b1-4)]GlcNAc
Outline: as §1

[32] = target: Fuc(a1-3)[Gal(b1-4)]GlcNAc(b1-4)Gal(b1-4)[Fuc(a1-3)]GlcNAc
Outline: as §1

[33] = target: Fuc(a1-3)[Gal(b1-4)]GlcNAc(b1-4)Gal(b1-4)[Fuc(a1-3)]GlcNAc(b1-4)Gal(b1-4)[Fuc(a1-3)]GlcNAc
Outline: as §1

[34] = target: Fuc(a1-3)[Gal3S(b1-4)]GlcNAc
Outline: as §1

[35] = target: Fuc(a1-3)[GalNAc(b1-4)]GlcNAc
Outline: as §1

[36] = target: Fuc(a1-4)GlcNAc
Outline: as §1

[37] = target: Fuc(b1-3)GlcNAc
Outline: as §1

[38] = target: Gal(a1-2)Gal
Outline: as §1

[39] = target: Gal(a1-3)Gal
Outline: as §1

[40] = target: Gal(a1-3)Gal(b1-3)GlcNAc
Outline: as §1

[41] = target: Gal(a1-3)Gal(b1-4)Glc
Outline: as §1

[42] = target: Gal(a1-3)Gal(b1-4)GlcNAc
Outline: as §1

[43] = target: Gal(a1-3)Gal(b1-4)[Fuc(a1-3)]GlcNAc
Outline: as §1

[44] = target: Gal(a1-3)GalNAc
Outline: as §1

[45] = target: Gal(a1-3)[Gal(a1-4)]Gal(b1-4)GlcNAc
Outline: as §1

[46] = target: Gal(a1-4)Gal(b1-4)Glc
Outline: as §1

[47] = target: Gal(a1-4)Gal(b1-4)GlcNAc
Outline: as §1

[48] = target: Gal(a1-4)GlcNAc
Outline: as §1

[49] = target: Gal(a1-6)Glc
Outline: as §1

[50] = target: Gal(b1-2)Gal
Outline: as §1

[51] = target: Gal(b1-3)Gal
Outline: as §1

[52] = target: Gal(b1-3)GalNAc
Outline: as §1

[53] = target: Gal(b1-3)GalNAc(b1-3)Gal(a1-4)Gal(b1-4)Glc
Outline: as §1

[54] = target: Gal(b1-3)GalNAc(b1-4)Gal(b1-4)Glc
Outline: as §1

[55] = target: Gal(b1-3)GalNAc(b1-4)[Neu5Ac(a2-3)]Gal(b1-4)Glc
Outline: as §1

[56] = target: Gal(b1-3)GlcNAc
Outline: as §1

[57] = target: Gal(b1-3)GlcNAc(b1-3)Gal(b1-4)Glc
Outline: as §1

[58] = target: Gal(b1-3)GlcNAc(b1-3)Gal(b1-4)GlcNAc
Outline: as §1

[59] = target: Gal(b1-3)[Fuc(a1-4)]GlcNAc
Outline: as §1

[60] = target: Gal(b1-3)[Fuc(a1-4)]GlcNAc(b1-3)Gal(b1-4)GlcNAc
Outline: as §1

B1: DEC205 (Homo sapiens), O60449 (protein)
chain: MRTGWATPRRPAGLLMLLFWFFDLAEPSGRAANDPFTIVHGNTGKCIKPVYGWIVADDCDETEDKLWKWVSQHRLFHLHSQKCLGLDITKSVNELRMFSCDSSAMLWWKCEHHSLYGAARYRLALKDGHGTAISNASDVWKKGGSEESLCDQPYHEIYTRDGNSYGRPCEFPFLIDGTWHHDCILDEDHSGPWCATTLNYEYDRKWGICLKPENGCEDNWEKNEQFGSCYQFNTQTALSWKEAYVSCQNQGADLLSINSAAELTYLKEKEGIAKIFWIGLNQLYSARGWEWSDHKPLNFLNWDPDRPSAPTIGGSSCARMDAESGLWQSFSCEAQLPYVCRKPLNNTVELTDVWTYSDTRCDAGWLPNNGFCYLLVNESNSWDKAHAKCKAFSSDLISIHSLADVEVVVTKLHNEDIKEEVWIGLKNINIPTLFQWSDGTEVTLTYWDENEPNVPYNKTPNCVSYLGELGQWKVQSCEEKLKYVCKRKGEKLNDASSDKMCPPDEGWKRHGETCYKIYEDEVPFGTNCNLTITSRFEQEYLNDLMKKYDKSLRKYFWTGLRDVDSCGEYNWATVGGRRRAVTFSNWNFLEPASPGGCVAMSTGKSVGKWEVKDCRSFKALSICKKMSGPLGPEEASPKPDDPCPEGWQSFPASLSCYKVFHAERIVRKRNWEEAERFCQALGAHLSSFSHVDEIKEFLHFLTDQFSGQHWLWIGLNKRSPDLQGSWQWSDRTPVSTIIMPNEFQQDYDIRDCAAVKVFHRPWRRGWHFYDDREFIYLRPFACDTKLEWVCQIPKGRTPKTPDWYNPDRAGIHGPPLIIEGSEYWFVADLHLNYEEAVLYCASNHSFLATITSFVGLKAIKNKIANISGDGQKWWIRISEWPIDDHFTYSRYPWHRFPVTFGEECLYMSAKTWLIDLGKPTDCSTKLPFICEKYNVSSLEKYSPDSAAKVQCSEQWIPFQNKCFLKIKPVSLTFSQASDTCHSYGGTLPSVLSQIEQDFITSLLPDMEATLWIGLRWTAYEKINKWTDNRELTYSNFHPLLVSGRLRIPENFFEEESRYHCALILNLQKSPFTGTWNFTSCSERHFVSLCQKYSEVKSRQTLQNASETVKYLNNLYKIIPKTLTWHSAKRECLKSNMQLVSITDPYQQAFLSVQALLHNSSLWIGLFSQDDELNFGWSDGKRLHFSRWAETNGQLEDCVVLDTDGFWKTVDCNDNQPGAICYYSGNETEKEVKPVDSVKCPSPVLNTPWIPFQNCCYNFIITKNRHMATTQDEVHTKCQKLNPKSHILSIRDEKENNFVLEQLLYFNYMASWVMLGITYRNNSLMWFDKTPLSYTHWRAGRPTIKNEKFLAGLSTDGFWDIQTFKVIEEAVYFHQHSILACKIEMVDYKEEHNTTLPQFMPYEDGIYSVIQKKVTWYEALNMCSQSGGHLASVHNQNGQLFLEDIVKRDGFPLWVGLSSHDGSESSFEWSDGSTFDYIPWKGQTSPGNCVLLDPKGTWKHEKCNSVKDGAICYKPTKSKKLSRLTYSSRCPAAKENGSRWIQYKGHCYKSDQALHSFSEAKKLCSKHDHSATIVSIKDEDENKFVSRLMRENNNITMRVWLGLSQHSVDQSWSWLDGSEVTFVKWENKSKSGVGRCSMLIASNETWKKVECEHGFGRVVCKVPLGPDYTAIAIIVATLSILVLMGGLIWFLFQRHRLHLAGFSSVRYAQGVNEDEIMLPSFHD
- glycan array binding signal (z-score) [1]: 0.066
- glycan array binding signal (z-score) [2]: -0.184
- glycan array binding signal (z-score) [3]: -0.204
- glycan array binding signal (z-score) [4]: -0.222
- glycan array binding signal (z-score) [5]: -0.153
- glycan array binding signal (z-score) [6]: -0.267
- glycan array binding signal (z-score) [7]: 0.287
- glycan array binding signal (z-score) [8]: -0.294
- glycan array binding signal (z-score) [9]: 0.017
- glycan array binding signal (z-score) [10]: 0.063
- glycan array binding signal (z-score) [11]: -0.152
- glycan array binding signal (z-score) [12]: 0.127
- glycan array binding signal (z-score) [13]: -0.133
- glycan array binding signal (z-score) [14]: -0.263
- glycan array binding signal (z-score) [15]: 1.97
- glycan array binding signal (z-score) [16]: -0.186
- glycan array binding signal (z-score) [17]: -0.222
- glycan array binding signal (z-score) [18]: -0.161
- glycan array binding signal (z-score) [19]: -0.208
- glycan array binding signal (z-score) [20]: -0.128
- glycan array binding signal (z-score) [21]: -0.114
- glycan array binding signal (z-score) [22]: -0.146
- glycan array binding signal (z-score) [23]: -0.09
- glycan array binding signal (z-score) [24]: -0.271
- glycan array binding signal (z-score) [25]: -0.153
- glycan array binding signal (z-score) [26]: -0.028
- glycan array binding signal (z-score) [27]: -0.211
- glycan array binding signal (z-score) [28]: -0.122
- glycan array binding signal (z-score) [29]: -0.128
- glycan array binding signal (z-score) [30]: -0.24
- glycan array binding signal (z-score) [31]: -0.335
- glycan array binding signal (z-score) [32]: -0.241
- glycan array binding signal (z-score) [33]: -0.168
- glycan array binding signal (z-score) [34]: -0.128
- glycan array binding signal (z-score) [35]: -0.116
- glycan array binding signal (z-score) [36]: -0.037
- glycan array binding signal (z-score) [37]: -0.339
- glycan array binding signal (z-score) [38]: -0.046
- glycan array binding signal (z-score) [39]: -0.216
- glycan array binding signal (z-score) [40]: -0.064
- glycan array binding signal (z-score) [41]: 1.66
- glycan array binding signal (z-score) [42]: -0.396
- glycan array binding signal (z-score) [43]: -0.293
- glycan array binding signal (z-score) [44]: -0.266
- glycan array binding signal (z-score) [45]: -0.316
- glycan array binding signal (z-score) [46]: -0.362
- glycan array binding signal (z-score) [47]: -0.18
- glycan array binding signal (z-score) [48]: -0.209
- glycan array binding signal (z-score) [49]: -0.145
- glycan array binding signal (z-score) [50]: -0.037
- glycan array binding signal (z-score) [51]: -0.262
- glycan array binding signal (z-score) [52]: -0.352
- glycan array binding signal (z-score) [53]: -0.217
- glycan array binding signal (z-score) [54]: 0.224
- glycan array binding signal (z-score) [55]: -0.351
- glycan array binding signal (z-score) [56]: -0.248
- glycan array binding signal (z-score) [57]: -0.421
- glycan array binding signal (z-score) [58]: -0.245
- glycan array binding signal (z-score) [59]: -0.342
- glycan array binding signal (z-score) [60]: 0.068

Source: the supplement of paper PMC8728848
